The record followed here is the antibiotic and cytotoxicity screens of Wong et al. (2023).

The structures appear in SMILES notation. The list shows a part of the results.

One assay relates to HSkMC. The assay is described as follows: cytotoxicity call (relative viability < 0.9). To be noted: 10 µM.
Another assay has as its system HepG2. The assay is described as follows: cytotoxicity call (relative viability < 0.9). Particulars: 10 µM.
Another assay deals with S. aureus RN4220. The assay is described as follows: growth inhibition call (relative growth <= 0.2). Particulars: 50 µM.

Take `C=CCOC(=O)N(C)C[C@@H]1Oc2ccc(NC(=O)OCC3c4ccccc4-c4ccccc43)cc2C(=O)N([C@H](C)CO)C[C@H]1C`: the cytotoxicity call with HSkMC and in the assay with HepG2 was “inactive” throughout. Also, in the assay on S. aureus RN4220, the growth inhibition call is “inactive”.

For the molecule `CCNC(=O)C[C@@H]1CC[C@@H]2[C@H](COC[C@H](O)CN2S(=O)(=O)c2ccc(Oc3ccccc3)cc2)O1`, the cytotoxicity call with HSkMC and with HepG2 was “inactive” throughout. Also, the growth inhibition call in the assay on S. aureus RN4220 is “inactive”.

With `COCC(=O)Nc1ccc2c(c1)OC[C@@H](C)N(C(=O)Cc1ccccn1)C[C@H](C)[C@H](OC)CN(C)C2=O`, the cytotoxicity call with HSkMC and in the assay on HepG2 was “inactive” in each case. The growth inhibition call with S. aureus RN4220 was “inactive”.

For `C[C@@H]1CN([C@@H](C)CO)C(=O)c2cc(NC(=O)CCN3CCOCC3)ccc2O[C@H]1CN(C)S(=O)(=O)c1ccc(F)cc1`, the cytotoxicity call in the assay with HSkMC and in the assay on HepG2 was “inactive” each time. The growth inhibition call with S. aureus RN4220 was “inactive”.

Regarding `CCOC(=O)[C@H]1C/C=C/C[C@H](C(=O)OCC)C(=O)O[C@H]2[C@@H](OC)O[C@H](CO)[C@@H](OC(=O)c3ccc(Br)cc3)[C@@H]2OC1=O`, the cytotoxicity call with HSkMC and in the assay with HepG2 was “inactive” each time. The growth inhibition call with S. aureus RN4220 was “inactive”.

On to `C[C@H](CO)N1C[C@H](C)[C@@H](CN(C)Cc2ccc(Oc3ccccc3)cc2)Oc2c(NC(=O)Nc3ccc(F)cc3)cccc2C1=O`, for which the cytotoxicity call in the assay with HSkMC and with HepG2 was “inactive” each time. Further, the growth inhibition call in the assay on S. aureus RN4220 is “inactive”.

Turning to `C[C@H](CO)N1C[C@H](C)[C@@H](CN(C)Cc2ccc(C(=O)O)cc2)Oc2ccc(NC(=O)Nc3cccc4ccccc34)cc2C1=O`, the cytotoxicity call in the assay with HSkMC and in the assay with HepG2 was “inactive” throughout. In addition, the growth inhibition call in the assay on S. aureus RN4220 was “inactive”.

On to `CCCNC(=O)C[C@H]1CC[C@@H]2[C@H](COc3ccc(NS(=O)(=O)c4ccccc4C)cc3C(=O)N2C)O1`, for which the cytotoxicity call in the assay with HSkMC and in the assay on HepG2 was “inactive” each time. In addition, the growth inhibition call in the assay on S. aureus RN4220 was “inactive”.

With `COc1ccc(S(=O)(=O)Nc2ccc3c(c2)C(=O)N([C@@H](C)CO)C[C@@H](C)[C@H](CN(C)Cc2ccncc2)O3)cc1`, the cytotoxicity call in the assay with HSkMC and in the assay with HepG2 was “inactive” throughout. Moreover, the growth inhibition call in the assay with S. aureus RN4220 is “inactive”.

Consider `C=CCNC(=O)[C@H]1[C@@H]2C(=O)O[C@@H](c3ccccc3)[C@@H](c3ccccc3)N2[C@@H](c2ccc(O)cc2)[C@]12C(=O)N(C(=O)OCCOC)c1ccc(C#CC3=CCCCC3)cc12`, for which the cytotoxicity call in the assay with HSkMC and in the assay with HepG2 was “inactive” each time. Moreover, in the assay on S. aureus RN4220, the growth inhibition call is “inactive”.

For the molecule `CC(C)NC(=O)Nc1ccc2c(c1)CC(=O)N([C@@H](C)CO)C[C@@H](C)[C@@H](CN(C)S(=O)(=O)c1ccc(F)cc1)O2`, the cytotoxicity call with HSkMC and with HepG2 was “inactive” in each case. The growth inhibition call in the assay with S. aureus RN4220 was “inactive”.

Take `C[C@H]1CCCCO[C@H](CN(C)C(=O)Nc2ccc3c(c2)OCO3)[C@@H](C)CN([C@@H](C)CO)C(=O)c2cc(NS(=O)(=O)c3ccc(F)cc3)ccc2O1`: the cytotoxicity call in the assay on HSkMC and in the assay on HepG2 was “inactive” in each case. Moreover, the growth inhibition call in the assay on S. aureus RN4220 is “inactive”.

`Cc1ccc2c(c1)[C@](C)(O)CCS2`: the cytotoxicity call with HSkMC and in the assay on HepG2 was “inactive” in each case. Besides, the growth inhibition call in the assay with S. aureus RN4220 was “inactive”.

In the case of `C=CCNC(=O)[C@H]1[C@@H]2C(=O)O[C@@H](c3ccccc3)[C@@H](c3ccccc3)N2[C@@H](c2ccc(OCCO)cc2)[C@]12C(=O)N(C(=O)OCCOC)c1ccc(C#Cc3ccc(OC)cc3)cc12`, the cytotoxicity call with HSkMC and with HepG2 was “inactive” in each case. In the assay with S. aureus RN4220, the growth inhibition call was “inactive”.

Turning to `O=C1C[C@]2(c3ccc([N+](=O)[O-])cc3)C(=O)N(C3CC3)c3cc(CO)ccc3[C@H]2N1CC12CC3CC(CC(C3)C1)C2`, the cytotoxicity call in the assay on HSkMC and in the assay on HepG2 was “inactive” throughout. Moreover, the growth inhibition call in the assay on S. aureus RN4220 was “inactive”.

`O=C(N[C@H]1CC[C@@H](CCNS(=O)(=O)c2ccccc2)O[C@@H]1CO)c1cnccn1`: the cytotoxicity call in the assay with HSkMC and with HepG2 was “inactive” throughout. Besides, in the assay with S. aureus RN4220, the growth inhibition call was “inactive”.

On to `COc1ccc(O)cn1`, for which the cytotoxicity call with HSkMC and in the assay with HepG2 was “inactive” in each case. For the same molecule, the growth inhibition call with S. aureus RN4220 is “inactive”.

Regarding `C[C@H]1CN([C@@H](C)CO)C(=O)c2c(c3ccccc3n2C)-c2ccccc2CO[C@@H]1CN(C)S(=O)(=O)c1ccc(Cl)cc1`, in the assay on HSkMC, the cytotoxicity call was “inactive”. Moreover, the cytotoxicity call with HepG2 was “active”. Moreover, the growth inhibition call with S. aureus RN4220 is “inactive”.

Turning to `CCCNC(=O)N(C)C[C@H]1Oc2cc(-c3ccc(C)cc3)ccc2S(=O)(=O)N([C@@H](C)CO)C[C@@H]1C`, the cytotoxicity call in the assay on HSkMC and with HepG2 was “inactive” in each case. Further, in the assay with S. aureus RN4220, the growth inhibition call was “inactive”.

On to `CCNC(=O)c1cc2c(c(-c3cccc(-c4cccc(F)c4)c3)n1)[C@@H](CCO)N([S@](=O)C(C)(C)C)C2`, for which the cytotoxicity call in the assay on HSkMC and with HepG2 was “inactive” each time. For the same molecule, in the assay with S. aureus RN4220, the growth inhibition call is “inactive”.

Regarding `C[C@@H]1CCCCO[C@@H](CN(C)C(=O)c2ccccc2)[C@H](C)CN([C@@H](C)CO)C(=O)c2cc(NC(=O)Nc3cccc4ccccc34)ccc2O1`, the cytotoxicity call in the assay on HSkMC (human skeletal muscle cells) and in the assay on HepG2 was “inactive” throughout. Further, the growth inhibition call in the assay on S. aureus RN4220 was “inactive”.

`COc1ccc(S(=O)(=O)Nc2cccc3c2O[C@H](CN(C)S(=O)(=O)c2ccc(F)cc2)[C@@H](C)CN([C@H](C)CO)C3=O)cc1`: the cytotoxicity call with HSkMC and in the assay on HepG2 was “inactive” in each case. Moreover, the growth inhibition call in the assay on S. aureus RN4220 was “inactive”.

In the case of `COc1ccc(S(=O)(=O)N(C)C[C@@H]2Oc3ccc(NC(=O)CCCN(C)C)cc3CC(=O)N([C@@H](C)CO)C[C@H]2C)cc1`, the cytotoxicity call in the assay with HSkMC and in the assay on HepG2 was “inactive” each time. The growth inhibition call in the assay with S. aureus RN4220 is “inactive”.

As to `C[C@@H]1CCCCO[C@H](CN(C)Cc2ccc(Cl)c(Cl)c2)[C@@H](C)CN([C@H](C)CO)C(=O)c2cc(NC(=O)Nc3ccc(F)cc3)ccc2O1`, the cytotoxicity call with HSkMC was “inactive”. The cytotoxicity call in the assay with HepG2 was “active”. Besides, in the assay with S. aureus RN4220, the growth inhibition call was “inactive”.
